Some of the results follow. The full chains were built here from the parent and the listed change. Values near 0.05 are background.
B1: TEV protease; numbered along this chain (parent)
chain: MGESLFKGPRDYNPISSSICHLTNESDGHTTSLYGIGFGPFIITNKHLFRRNNGTLVVQSLHGVFKVKDTTTLQQHLVDGRDMIIIRMPKDFPPFPQKLKFREPQREERICLVTTNFQTKSMSSMVSDTSCTFPSGDGIFWKHWIQTKDGQCGSPLVSTRDGFIVGIHSASNFTNTNNYFTSVPKNFMELLTNQEAQQWVSGWRLNADSVLWGGHKVFMVKPEEPFQPVKEATQL

Variants of: B1
Test: raw area under fraction-flipped curve 0-4 h after induction (AUC4h, not background-subtracted), DNA-recorder readout of cleavage of the substrate (dimensionless); higher = more cleavage of the substrate by the protease variant
Details: temperature: 34 °C; time window: 0-4 h after rhamnose induction
Procedure: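 In vivo DNA recorder in E. coli TOP10(DE3) ΔrhaA at 34 °C. Each TEVp single-site mutant (parent TEVp 0) is paired with a single-site variant of the 7-mer TEVs (canonical ENLYFQ|S). The substrate sits between flexible linkers in a Bxb1-sfGFP-TEVs-SsrA fusion, so cleavage stabilises Bxb1 and speeds flipping of a recombination array, read by NGS. The value is the raw area under the fraction-flipped curve over 0-4 h after rhamnose induction (AUC4h), with ≥20 reads per time point. It is not background-subtracted; inactive controls average about 0.047.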
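Also: Bxb1 expression induced with 0.2% (w/v) L-rhamnose at OD600 near 0.5, cultures sampled hourly, flipped fraction per protease–substrate barcode pair counted by paired-end Illumina sequencing.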

Variant | area with substrate ENLYCQS | area with substrate ENLYDQS | area with substrate ENLYEQS | area with substrate ENLYGQS | area with substrate ENLYHQS | area with substrate ENLYIQS | area with substrate ENLYKQS | area with substrate ENLYLQS | area with substrate ENLYMQS | area with substrate ENLYNQS | area with substrate ENLYPQS | area with substrate ENLYQQS | area with substrate ENLYRQS | area with substrate ENLYSQS | area with substrate ENLYTQS | area with substrate ENLYVQS | area with substrate ENLYWQS | area with substrate ENLYYQS
I42C | 0.0747 | 0.0637 | 0.0603 | 0.0601 | 0.06 | 0.107 | 0.0234 | 0.083 | 0.0765 | 0.0621 | 0.0618 | 0.064 | 0.0661 | 0.0648 | 0.0788 | 0.113 | 0.0649 | 0.0654
I42Y | 0.0442 | 0.0467 | 0.0445 | 0.0536 | 0.0454 | 0.0545 | 0.0437 | – | – | 0.0542 | 0.0384 | 0.0503 | – | 0.0481 | – | 0.0352 | – | 0.0332
T44D | 0.0542 | 0.0429 | 0.0444 | 0.0427 | 0.0419 | 0.0324 | 0.0332 | 0.0446 | 0.0499 | 0.039 | 0.0391 | 0.0368 | – | 0.0449 | – | 0.0415 | 0.0492 | 0.0403
N45I | 0.0728 | 0.0556 | 0.0581 | 0.0784 | 0.0408 | – | 0.0591 | – | 0.063 | 0.0526 | 0.0601 | 0.0571 | 0.0555 | 0.0592 | 0.0563 | 0.0723 | – | –
R51A | 0.0885 | 0.0323 | – | 0.0681 | 0.0697 | 0.146 | 0.0646 | – | – | 0.0748 | 0.0878 | – | 0.0556 | 0.0756 | 0.0462 | 0.184 | 0.0924 | –
G54R | 0.0682 | 0.0659 | 0.0649 | 0.0592 | 0.0641 | 0.0673 | 0.0675 | 0.0571 | 0.0561 | 0.0622 | 0.062 | 0.0577 | 0.057 | 0.0598 | – | 0.0753 | 0.0668 | 0.0556
L56V | 0.0825 | 0.0608 | 0.0622 | 0.0533 | 0.0661 | 0.104 | 0.0332 | – | 0.0864 | 0.0633 | 0.0835 | 0.0615 | – | 0.0721 | – | – | 0.0573 | 0.0564
V67D | 0.0604 | 0.0524 | 0.0448 | – | 0.0554 | – | 0.0563 | – | 0.049 | 0.066 | 0.0362 | – | – | – | 0.0508 | 0.0783 | 0.0872 | –
Q75C | 0.118 | 0.0885 | 0.0683 | 0.067 | 0.05 | 0.111 | 0.0554 | – | – | 0.0672 | 0.063 | 0.0614 | 0.0583 | – | – | – | 0.0672 | –
M83W | 0.0683 | 0.054 | – | 0.077 | 0.0535 | 0.0533 | 0.0725 | – | 0.0654 | 0.0678 | 0.049 | – | – | 0.0746 | 0.0616 | 0.0595 | 0.0522 | 0.0515
I84W | 0.0721 | 0.0572 | 0.0596 | 0.0549 | 0.0546 | – | 0.0581 | – | 0.0572 | 0.0551 | 0.0608 | 0.0514 | 0.0489 | 0.0576 | 0.0501 | 0.0583 | 0.0453 | 0.0643
P94G | 0.0993 | – | 0.0836 | 0.064 | 0.064 | 0.167 | 0.0189 | 0.0587 | 0.0931 | 0.0573 | 0.0719 | – | – | 0.0818 | 0.0972 | 0.144 | 0.103 | 0.084

— the supplement of paper PMC12217912
